Test results taken from article PMC12136788.
The list shows a part of the results.

B1: chr12:132079871:132079972:+|3pUTR|ENSG00000183495|msi1|FALSE|bound_elsewhere (ssRNA)
RNA: GGGAGUUCUACAGUCCGACGAUCAGAUGCUACCGUUGACCUGAGUUAAAUUCAUUUAGUCGUGUACGUAAAAACUCUCCUUUUAGUGUGUUAUUUUCUUGGCCUUCCCUUUUAAAGGUUAAAGUUUCUAACCUAAGAAUUAAGCAACAGAGGAUUGAGCAUCA
B2: chr18:5392435:5392536:-|3pUTR|ENSG00000082397|msi1|total|mutant (ssRNA)
RNA: GGGAGUUCUACAGUCCGACGAUCAAGCCUUAAACUGUACAGAAUUUCCACUGUAAUUAAAACUAUUCCGUGUCCGUUAUAAACCGCCUUCAAAAAGAGAGAUUCUCCAUUACACGAUCACCUGCAUCACAGCCCAUGGUGAAUCAACAGAGGAUUGAGCAUCA
B3: chr7:5977587:5977790:-|CDS|ENSG00000122512|control|control|control (ssRNA)
RNA: GGGAGUUCUACAGUCCGACGAUCCAAAAUUGUAUUCUUUUAGCUCCAGUCACUGAAAGGGCUAAACUGAUUUCCUUGCCAACUAGUAAAAACUGGACCUUCGGACCCCAGGACGUCGAUGAACUGAUCUUCAUGCUGAGCGACCAACAGAGGAUUGAGCAUCA
B4: chr11:35726083:35726184:+|CDS|ENSG00000166326|msi1|total|mutant (ssRNA)
RNA: GGGAGUUCUACAGUCCGACGAUCGAGGCAAUGGCCACAGCUCAUGUGACUGAGAUACUGGCAGACAUCCAAUCCCACAUGGACCGGUUGAUGACUCAGAUGGCCCAAGCCAAGGAACAACUUGAUACCUCUAAUGAAUCAGCUCAACAGAGGAUUGAGCAUCA
B5: chr3:23954599:23954720:+|CDS|ENSG00000174738|unk|total|mutant (ssRNA)
RNA: GGGAGUUCUACAGUCCGACGAUCAGUGAGGGUUCUGAGAACCGUUUCCAGUCCUCCUCCUCUUCUGUUCCAUCUUCUCCAAACCGCUCUAAUUCUGAUACCAAUGGUAAUCCCAAGAAUGGUGAUCUCGCCAAUAUUGAAGGCCAACAGAGGAUUGAGCAUCA
B6: chr19:10690846:10690947:+|3pUTR|ENSG00000129351|msi1|FALSE|bound_elsewhere (ssRNA)
RNA: GGGAGUUCUACAGUCCGACGAUCGAAAGAGGUGAAAGAACAAGUUGUGUGCUAGAAAACUUUUGAGGAAUUCUUAUUUGUGUUAGAGCAGAGGAGGUCCCAGAUACCAAGUGGCGCCUCCCAGGAAAGGCUGGGAGAAGAGGUCAACAGAGGAUUGAGCAUCA
B7: chr4:75876286:75876673:-|CDS|ENSG00000156194|control|control|control (ssRNA)
RNA: GGGAGUUCUACAGUCCGACGAUCCGGUUCCCUGGACGGGCGGGAGCUCUCCCGGCAGGUGCGGAGCUCCGUGGAACUGGAGCUAGAGCGGUGCCGGCAGCAAGCAGGCCUCCUGGUGACCGGAGAGAAAGAGGAGCCCUCCCGCAACAGAGGAUUGAGCAUCA
B8: chr9:125307754:125307855:+|CDS|ENSG00000165219|unk|total|mutant (ssRNA)
RNA: GGGAGUUCUACAGUCCGACGAUCGGCUCUUGACAAUUUAUUGGCAAACCUACCCCCGGCCAAGCCAGGAAAAAGCCGCAGUUCCGAAAUGACUCCCUACAAUACACCUCAGCUAUCUCCAGCAACCACUCCAGCAAAUAAAAACAACAGAGGAUUGAGCAUCA
B9: chr14:80199969:80200157:-|3pUTR|ENSG00000211448|msi1|FALSE|unique (ssRNA)
RNA: GGGAGUUCUACAGUCCGACGAUCUUUAUGAUUUCUUGUGAUGUAUUCUUUUAUGAAAUUAACAAGAACUCAUUAUUUUGAGGUAGAGGAAAAUCAAUGCUUUAUCUGAUAUGCUGAGAAAUUAUUAGAUUGCCAAUACUCAUGCAACAGAGGAUUGAGCAUCA
B10: chr1:32075697:32075801:+|CDS|ENSG00000121775|unk|total|mutant (ssRNA)
RNA: GGGAGUUCUACAGUCCGACGAUCCGAGCUGCCAGUCCAGGCCAGCAUUCUGUUUGAGUUGCAGCUCUUCUUCUGCCAGCUCACCGCACUCUUCGUCCACUACAUCAACAUCUACAAGACAGUGUGGUGGUAUCCACCUUCCCACAACAGAGGAUUGAGCAUCA
B11: chr9:124878635:124878736:-|3pUTR|ENSG00000136935|msi1|FALSE|unique (ssRNA)
RNA: GGGAGUUCUACAGUCCGACGAUCCCAGCCAUUGAACUGGUCCCACACGCACCCCAGGCCCCACUCCUCGGCAGUUUCAGGUGUAGCUGUGGGGCCCGUUCCUAGGUCUGUACUCACUUUAGGGAGGCUUCACUGACUAGGCUUCAACAGAGGAUUGAGCAUCA
B12: chrX:30828625:30828726:-|3pUTR|ENSG00000157625|msi1|total|mutant (ssRNA)
RNA: GGGAGUUCUACAGUCCGACGAUCUUCUUGUUUCUUGUAAGAGGUUUCUUUAAAAUGACCCGUUUGAUGUAUCUGGUAACAUACCGGCCUGACUAUACAUUUUACAUUAUUUCGCUAUUUUGUAAACUGGGAUUUCCGAAAGCACAACAGAGGAUUGAGCAUCA
B13: ENSG00000070961:be:win_5851|3pUTR|ENSG00000070961|bound_else_gene|NA|bound_elsewhere_windowed (ssRNA)
RNA: GGGAGUUCUACAGUCCGACGAUCAUGAAUGUAAUUACCAAAAGAUUUAGAAGUGCAUGUGCUUUGGAGGAUUUGUAUUGAGCUUUUACAGUAUUCAUUUUUCAACUCAAGGCAAUGGCUUUCUACACCAACUCUAAUCCAUAACAACAGAGGAUUGAGCAUCA
B14: chr12:89642165:89642281:-|CDS|ENSG00000070961|unk|total|mutant (ssRNA)
RNA: GGGAGUUCUACAGUCCGACGAUCGCCAAAAACCUUUCUUCAAUCCGUAUGGGAAGCAUUACAAGAUGUCACUUUAAUUAUAUCCGAAAUUGCAGCCACCGUAUCAUUGGGCCUUUCUUUUUAUCAGCCUCCAGAAGGGGAUAACAACAGAGGAUUGAGCAUCA

target: MSI1 full-length (mouse, UniProt Q61474 1-362); assay: nsRBNS (natural sequence RNA bind-n-seq); RBNS binding buffer (assumed for nsRBNS): 25 mM Tris pH 7.5, 150 mM KCl, 3 mM MgCl2, 0.01% Triton X-100, 500 ug/ml BSA, 20 U/ml SUPERase-In, 4 C; UNK is unkempt and MSI1 is Musashi-1; names of the RNAs are library labels; protein concentration not given here; high values mean tight binding
Chain of UniProt Q61474 (Q61474 whole entry): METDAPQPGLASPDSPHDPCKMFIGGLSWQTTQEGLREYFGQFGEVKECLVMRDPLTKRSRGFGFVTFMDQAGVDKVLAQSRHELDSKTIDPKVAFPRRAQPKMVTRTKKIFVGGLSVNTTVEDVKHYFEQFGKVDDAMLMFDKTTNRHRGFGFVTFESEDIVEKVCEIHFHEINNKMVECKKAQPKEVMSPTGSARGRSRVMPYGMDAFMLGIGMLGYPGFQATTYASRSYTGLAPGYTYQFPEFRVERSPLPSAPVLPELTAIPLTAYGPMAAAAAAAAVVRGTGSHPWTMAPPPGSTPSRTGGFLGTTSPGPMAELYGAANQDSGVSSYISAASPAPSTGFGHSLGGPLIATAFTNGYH

| Binder | binding signal [enrichment R] |
| --- | --- |
| B1 | 4.94 |
| B2 | 0.785 |
| B3 | 0.798 |
| B4 | 0.359 |
| B5 | 0.482 |
| B6 | 1.16 |
| B7 | 0.349 |
| B8 | 0.539 |
| B9 | 0.522 |
| B10 | 0.431 |
| B11 | 0.478 |
| B12 | 0.416 |
| B13 | 5.98 |
| B14 | 0.453 |
